Results published in the supplement of paper PMC3334620.
Whole data set: some 33,000 sequences, median “E-score (-0.5 to 0.5)” near -0.016, cut for the highest 2% near 0.32. The list shows a part of the results.

Target: T1, Stp1 (UniProt B3LFK1)
T1 sequence: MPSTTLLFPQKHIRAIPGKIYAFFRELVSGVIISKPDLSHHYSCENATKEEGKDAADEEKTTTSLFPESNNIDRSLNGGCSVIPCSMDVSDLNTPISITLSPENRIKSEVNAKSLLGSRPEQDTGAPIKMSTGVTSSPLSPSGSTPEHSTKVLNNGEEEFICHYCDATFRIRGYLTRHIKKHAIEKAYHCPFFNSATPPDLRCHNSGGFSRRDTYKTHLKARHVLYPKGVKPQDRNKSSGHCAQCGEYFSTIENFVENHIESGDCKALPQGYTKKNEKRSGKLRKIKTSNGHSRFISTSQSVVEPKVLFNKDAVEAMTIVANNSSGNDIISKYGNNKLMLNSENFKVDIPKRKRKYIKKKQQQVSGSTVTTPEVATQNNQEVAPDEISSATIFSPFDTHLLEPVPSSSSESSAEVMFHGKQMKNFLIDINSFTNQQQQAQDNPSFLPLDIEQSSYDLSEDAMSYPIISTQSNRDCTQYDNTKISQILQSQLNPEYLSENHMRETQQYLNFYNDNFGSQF
Experiment: PBM E-score (8-mer binding enrichment) (E-score (-0.5 to 0.5)); higher = stronger / more preferred TF binding; most listed sequences are background and not binding sites
Conditions: protein concentration: 200 nM; construct: GST-full length
Outline: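 Yeast transcription factors carrying a GST tag, as full-length proteins or DNA-binding domains, were produced by PURExpress in vitro transcription/translation. About 100-200 nM protein was applied to universal all-10-mer Agilent arrays, double-stranded by primer extension on fresh or once-stripped slides. Bound protein was detected with fluorescent anti-GST, and scans were normalised with masliner. The Universal PBM Analysis Suite gave each ungapped eight-base word, pooled with its reverse complement, an E-score, a modified Wilcoxon-Mann-Whitney statistic.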

Sequence | PBM E-score
AATGGTTG | 0.0793
AGCCCGTC | -0.303
AAAACGAA | 0.0597
CGGATGCC | 0.254
AATATTGG | -0.219
GATAGAGA | -0.145
ACCGGAAT | -0.219
GAACGGAA | 0.138
CAAATGAG | -0.0429
AGTATGAG | 0.0527
AGGCCGCG | 0.244
CAAACTCG | -0.00524
ATTCGCAC | 0.0125
CGTTAGAC | 0.0981
CATGAACA | 0.21
AATTCTCC | 0.0125
CCCTGGAC | -0.218
GCCTATTA | 0.137
CACGACAG | 0.0144
CATTGATA | 0.151
TGAAGTCA | -0.127
CACATATA | 0.144

Sequence | PBM E-score
GCCACCCC | -0.188
ACAGACGT | 0.0596
CACATGCA | 0.03
AAGTGGAC | -0.198
ATAGTGAG | -0.0378
CCCTGTCG | 0.0867
ATCAGGTA | 0.0408
AGCCTAAA | -0.00042
ATCTACAA | 0.112
ACGCGCTC | 0.105
GTAATCTA | 0.192
CACCATGG | -0.179
TGCTATAA | -0.105
AATAAATT | 0.186
ACATGCGC | 0.0198
AAGGGGAC | -0.223
TACCTGGA | 0.0429
CTTATTCC | 0.00804
AGCTTCAC | -0.221
CGGCGACC | 0.203
ACTTAACC | -0.121
GAGCTCCC | -0.366

Sequence | PBM E-score
ATCAGGAG | 0.00491
AGCGCCAC | 0.13
AAAAGATC | -0.0296
TGAAGTAA | -0.11
GTAAGTAA | 0.00347
CGAGTAGC | 0.0298
GTAGATCA | 0.0688
GAGATAAC | 0.0172
ATAGAGAC | -0.182
ATACAGAC | -0.0347
ACTCACTA | 0.109
ATCGGCAG | -0.00845
ATACAACA | 0.0507
GTAGGCTA | -0.0678
AGAGCTCC | -0.239
ACAAACGG | 0.352
CCCTTATC | 0.0886
TAGGTCGA | 0.0532
GACAACGA | 0.0291
ATCAATAC | 0.0444
GAGATGCC | 0.108
ATAGTGGA | -0.0133

Sequence | PBM E-score
CATCGTGA | -0.0218
CGTTCGTC | 0.0625
CTGTGAAC | -0.122
CTTTAGCC | 0.107
GGCCCCTA | -0.282
CAGTTAAG | 0.104
CCGGACCC | -0.175
ACGGCTAC | 0.407
ACCGGTCT | -0.445
AGTTTCAG | 0.142
AAGGACGC | 0.00448
ATGAAAAA | 0.24
AAGTGGGT | -0.0658
ACCAACGT | -0.0513
CGTGAAGC | -0.105
TGAGGAAA | -0.0138
AAGCGCGT | -0.116
ACATTCGC | -0.0206
AAGAGTAG | 0.0639
CGACAAGA | 0.0663
ATCCTTCC | -0.293
CTCACTCA | 0.00832

Sequence | PBM E-score
TGCGCGCA | 0.133
CAGCATGC | -0.121
ATGGCTCG | -0.0567
GGCACTCA | -0.0219
ATAGGGAA | -0.0545
ACCCGCTC | -0.119
GAATGCAC | 0.147
CACAAGAG | 0.0773
ATGGATCG | 0.0769
GCTGCTCA | -0.121
CGCAAAGA | 0.117
ATTAATGC | 0.0952
GAAGCCAA | -0.0792
AGAACTAC | 0.0599
CACCGCTG | -0.187
ACTATAGC | -0.156
CTGTACAC | 0.0675
ACGTTCAC | -0.167
CGGAAATC | 0.0016
CCAGATGG | -0.168
CCATCTAC | -0.0688
CTCGACGC | 0.142
